# From PubChem BioAssay AID2147 (National Center for Advancing Translational Sciences (NCATS), 2009)
# “And” between values parts separate entries of the source, which are not always exact repeats. Identical values can stand only once. About 3,600 (1.6%) of roughly 230,000 compounds were called active. The shares of active, inactive and inconclusive entries below differ from those in the screen. The call rests on the fitted dose curve; in most records, active means well fitted inhibition curve with a large enough effect (not every such curve was filed as active); inconclusive means small, poorly fitted or top-dose-only effect, or another doubt; inactive means no such curve, though single readings can be large or run the other way. Potencies of inconclusive entries are doubtful fits and often do not repeat.
# Biological target: Lysine-specific demethylase 4E (Homo sapiens) (UniProt B2RXH2)
# Assay: qHTS Assay for Inhibitors of Human Jumonji Domain Containing 2E (JMJD2E)
# Conditions: JMJD2E catalytic domain, FDH-coupled NADH fluorescence (FDH is formaldehyde dehydrogenase); series mostly up to 57.1 µM; activity change, negative = inhibition: at the top concentration
# Further: nearly all actives have a fitted effect of over 50% in size.
# Potency means the concentration at half of the fitted maximal effect; tags describe the fitted curve by direction and shape.
# 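Wherever activity change, negative = inhibition is given: 0% = wells with enzyme and -100% = buffer wells without enzyme.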
# Chain of UniProt B2RXH2 (B2RXH2 whole entry, looked up, the tested form may be a part): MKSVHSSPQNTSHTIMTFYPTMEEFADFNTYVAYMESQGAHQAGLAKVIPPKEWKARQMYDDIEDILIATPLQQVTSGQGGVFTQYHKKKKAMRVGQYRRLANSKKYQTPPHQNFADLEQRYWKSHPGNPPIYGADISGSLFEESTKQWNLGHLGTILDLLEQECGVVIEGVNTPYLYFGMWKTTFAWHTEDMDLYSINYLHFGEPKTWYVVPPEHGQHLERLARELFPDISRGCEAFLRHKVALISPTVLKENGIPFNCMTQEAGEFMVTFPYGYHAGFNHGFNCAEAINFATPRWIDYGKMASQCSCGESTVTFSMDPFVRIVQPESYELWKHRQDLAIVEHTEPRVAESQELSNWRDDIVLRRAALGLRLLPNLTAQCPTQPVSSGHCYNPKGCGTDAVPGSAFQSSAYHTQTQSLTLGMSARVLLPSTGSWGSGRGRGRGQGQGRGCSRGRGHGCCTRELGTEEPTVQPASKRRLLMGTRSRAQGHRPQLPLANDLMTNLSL
SMILES,Potency,"activity change, negative = inhibition"
CC(C)(C)CN1CCNC(=O)C1CC(=O)NC1Cc2ccccc2C1 (stereo unspecified),"inconclusive: 31.6 µM [inhibitor, single point]",–
CCc1c(C)sc(NC(=O)c2noc(C)c2[N+](=O)[O-])c1C#N,–,inactive: -8.8%
Cc1c(NC(=O)c2ccc3c(c2)OCO3)cccc1-c1nc2ccccc2o1,"inconclusive: 39.8 µM [inhibitor, single point]",–
O=C(CSc1nc2ncc(Cl)cc2[nH]1)c1c[nH]c2ccccc12,"inconclusive: 2.82 µM [inhibitor, partial curve, poor fit]",–
Cc1ccc(C(=O)N2CCCC(c3ccc(Cl)cc3)=N2)cc1,–,inactive: -8.2%
Cc1nc2ccccc2c(=O)n1NC(=O)c1c(O)c2c(n(CC(C)C)c1=O)CCCC2,"inconclusive: 28.2 µM [inhibitor, partial curve]",–
N[C@@H](Cc1cnc[nH]1)C(=O)O,"inconclusive: 31.6 µM [inhibitor, single point]",–
COc1cc(-c2cc(C(=O)OCC(=O)Nc3ccc4c(c3)OCO4)c3ccccc3n2)cc(OC)c1OC,"inconclusive: 39.8 µM [inhibitor, single point]",–
COc1cc(C(=O)N2CCCN(c3nc4cc(C)ccc4cc3C#N)CC2)cc(OC)c1OC,"inconclusive: 25.1 µM [inhibitor, partial curve]",–
CCOc1ccc(-c2nc(CSCC(=O)NC3CCCc4ccccc43)c(C)o2)cc1 (stereo unspecified),"inconclusive: 28.2 µM [inhibitor, partial curve]",–
COc1ccc(CCNC(=O)C(=O)Nc2ccc3c(c2)OCO3)cc1OC,–,inactive: 5.57%
O=C(/C=C/c1ccco1)N1CCN(S(=O)(=O)c2ccc(F)c(F)c2F)CC1,–,inactive: 6.75%
Nc1nc(SCC(=O)N2CCc3ccccc3C2)[nH]c(=O)c1-c1ccccc1,–,inactive: 2.21%
CCCCCCN(CCCCCC)C(=O)Cc1c(-c2ccc(F)cc2)[nH]c2ccccc12,"inconclusive: 31.6 µM [inhibitor, partial curve] and inconclusive: 25.1 µM [inhibitor, partial curve]",–
Cc1cc(C)cc(N=Cc2[nH]c3ccc(Br)c(Cl)c3c2O)c1,–,inactive: 1.48%
O=C(O)c1ccc2ncc(NC(=O)c3ccc(F)cc3)c(=O)n2c1,"inconclusive: 5.01 µM [inhibitor, full curve]",–
CCCCn1c(=O)[nH]c2nc3cc(N)ccc3nc2c1=O,–,inactive: -2.89%
COC(=O)c1c(NC(=O)c2ccc(C)cc2)sc(Cc2ccccc2)c1C,"inconclusive: 1.78 µM [inhibitor, partial curve]",–
O=C(NCCN1CCOCC1)c1c[nH]c2ccc(S(=O)(=O)N3CCOCC3)cc2c1=O,"inconclusive: 31.6 µM [inhibitor, partial curve]",–
CN1/C(=C\C(=O)COC(=O)c2ccco2)C(C)(C)c2ccccc21,"inconclusive: 35.5 µM [inhibitor, single point]",–
COCCn1c(=S)[nH]c2ccc(N(C)C)cc2c1=O,"inconclusive: 28.2 µM [inhibitor, partial curve]",–
COC(=O)c1ccccc1NC(=O)C(C)NS(=O)(=O)c1ccc(OC)cc1 (stereo unspecified),"inconclusive: 28.2 µM [inhibitor, single point]",–
c1ccc(Oc2cccc3cccnc23)nc1,"inconclusive: 39.8 µM [inhibitor, single point]",–
O=C(NCc1ccco1)c1ccc2c(c1)N(Cc1ccccc1)CCS2,"inconclusive: 22.4 µM [inhibitor, partial curve]",–

SMILES,Potency,"activity change, negative = inhibition"
Cc1ccc(N=C2NC(=O)/C(=C\c3ccc(C)s3)S2)cc1,–,inactive: 9.75%
Cc1nc(N)sc1-c1csc(Nc2ncccn2)n1,–,inactive: -11.3%
CN(C)/C=N/c1ncc(C(=O)c2ccc(Cl)cc2Cl)s1,"inconclusive: 35.5 µM [inhibitor, single point]",–
COc1ccc(S(=O)(=O)Nc2nc3ccccc3nc2NCc2ccc3c(c2)OCO3)cc1,–,inactive: -6.74%
N#Cc1c(-c2cccc(Br)c2)cc(-c2cccnc2)nc1N,"inconclusive: 0.708 µM [inhibitor, full curve]",–
COc1ccc(-c2nc(N)n(C(=O)Cc3ccccc3)n2)cc1,–,inactive: 10.2%
COc1ccc(-n2c(CN3CCN(c4ccccn4)CC3)nc3ccc([N+](=O)[O-])cc3c2=O)c(OC)c1,"inconclusive: 39.8 µM [inhibitor, single point]",–
COc1cc(C2Nc3ccccc3C(=O)N2c2ccc(Cl)cc2)c(Cl)cc1OCC(=O)O (stereo unspecified),"inconclusive: 31.6 µM [inhibitor, partial curve]",–
Cc1c(/C=N\NC(=O)C2COc3ccc(C(C)(C)C)cc3O2)c2ccccc2n1C (stereo unspecified),–,inactive: -6.8%
Cc1ccccc1C1CC(=O)NC2=C1C(=O)CCC2 (stereo unspecified),"inconclusive: 22.4 µM [inhibitor, single point]",–
CCN1/C(=C/c2ccc3cc(C)ccc3[n+]2CC)Sc2cc(C)c(C)cc21,"inconclusive: 15.8 µM [inhibitor, partial curve]",–
Cc1cccc(NC(=O)c2ccc3c(Cl)c4c(nc3c2)CCCC4)n1,"inconclusive: 39.8 µM [inhibitor, single point]",–
CC(=O)N1CCN(C(=S)c2ccc(N(C)C)cc2)CC1,–,inactive: -4.11%
C/C=C(/C)C(=O)O[C@H]1[C@@H](O)c2c(ccc3ccc(=O)oc23)OC1(C)C,"inconclusive: 31.6 µM [inhibitor, partial curve]",–
CCC(=O)Nc1ccc(-c2nnc(SCC(=O)NCC3CCCO3)n2C)cc1 (stereo unspecified),–,inactive: -7.74%
COC(=O)C(C)Oc1ccc(-c2nccc(-c3cccs3)n2)cc1 (stereo unspecified),"inconclusive: 39.8 µM [inhibitor, single point]",–
O=C1CC(N2CCN(c3ccccc3Cl)CC2)C(=O)N1c1ccccc1 (stereo unspecified),–,inactive: -4.88%
Cc1ccc(-c2nc(SCC(=O)NCC3CCCO3)c(-c3ccc(Cl)cc3)[nH]2)cc1 (stereo unspecified),"inconclusive: 35.5 µM [inhibitor, single point]",–
Cc1c(NC(=O)COC(=O)c2ccc[nH]c2=O)c(=O)n(-c2ccccc2)n1C,"inconclusive: 39.8 µM [inhibitor, single point]",–
Cc1cc(OCCN2CCCC2)ccc1C(C)C,"inconclusive: 39.8 µM [inhibitor, single point]",–
O=C1OC(/C(=C\Nc2cc(Cl)ccc2O)[N+](=O)[O-])c2ccccc21 (stereo unspecified),–,inactive: -18.6%
Cc1cc(N2CCN(c3ccccc3)CC2)nc(N2CCOCC2)n1,–,inactive: 3.11%
CC(C)(C)NC(=O)C1CCN(c2ccc(S(=O)(=O)N3CCOCC3)cc2Cl)CC1,–,inactive: 12.8%
Fc1ccccc1C1c2[nH]c3ccccc3c2CCN1CCCn1cccn1 (stereo unspecified),"inconclusive: 35.5 µM [inhibitor, single point]",–

SMILES,Potency,"activity change, negative = inhibition"
c1ccc(CN2CCN(c3ncnc4c3[nH]c3ccccc34)CC2)cc1,"inconclusive: 39.8 µM [inhibitor, single point]",–
CCCN1CCC(NC(=O)Nc2ccccc2C(=O)OC)CC1,"inconclusive: 39.8 µM [inhibitor, single point]",–
CN(C)c1ccc(Nc2nc(N)c([N+](=O)[O-])c(N3CCOCC3)n2)cc1,–,inactive: 3.03%
COc1ccc(-n2c(CN3CCC(C(N)=O)CC3)nc3ccc([N+](=O)[O-])cc3c2=O)c(OC)c1,"inconclusive: 5.62 µM [inhibitor, full curve, poor fit]",–
CN(C1CCCCC1)S(=O)(=O)c1ccc(S(=O)(=O)N(CC(=O)Nc2ccccc2)C2CC2)cc1,–,inactive: -0.0374%
CCc1cc2c(=O)c(-c3cscn3)coc2c(CN(C)C)c1O,"inconclusive: 25.1 µM [inhibitor, partial curve]",–
CN(C)c1ccc(N=Nc2ccccc2C(=O)OCC(=O)NCC2CCCCC2)cc1,–,inactive: -3.03%
O=[N+]([O-])c1ccc(N/N=C2\CC3CC=CC23)cc1 (stereo unspecified),–,inactive: -3.91%
Cc1cc(=O)oc2c(CN(CC(C)C)CC(C)C)c(O)ccc12,"inconclusive: 7.08 µM [inhibitor, partial curve]",–
Cc1[nH]c2ccc(-c3nnc(SCC(=O)NCc4ccco4)n3Cc3ccccc3)cc2c1C,–,inactive: -18.3%
O=C(CCn1nc(-c2ccccc2)c2ccccc2c1=O)NCC1CCCO1 (stereo unspecified),–,inactive: -2.9%
COc1cccc(/C=C/C(=O)OCC(=O)Nc2cccc(S(=O)(=O)N3CCOCC3)c2)c1OC,"inconclusive: 31.6 µM [inhibitor, partial curve]",–
OCc1cn(-c2ccccc2)nc1-c1ccco1,"inconclusive: 31.6 µM [inhibitor, single point]",–
CSc1nc(N)c2ncn([C@H]3O[C@H](COP(=O)(O)OP(=O)(O)O)[C@@H](O)[C@@H]3O)c2n1,–,inactive: 6.3%
COc1ccc(S(=O)(=O)N(C)CC(=O)Nc2ccc3c(c2)OCO3)cc1,–,inactive: 0.568%
COc1ccc2[nH]c(CN3CCN(CC(C)C)C(CCO)C3)c(C)c2c1 (stereo unspecified),"inconclusive: 39.8 µM [inhibitor, single point]",–
COC(=O)c1cc2ccc(OC)c(OC)c2c(=O)s1,"inconclusive: 39.8 µM [inhibitor, single point]",–
CCn1ccnc1CN1CCCC(C(=O)c2ccc3cc(OC)ccc3c2)C1 (stereo unspecified),"inconclusive: 28.2 µM [inhibitor, partial curve]",–
COC(=O)N[C@@H](/C=C/c1ccccc1)/C(C(=O)OC)=C(\C)NCc1ccccc1,–,inactive: 2.34%
N=C(N)SCCc1cnc[nH]1,inactive,–
O=C(CCCOc1ccc(Cl)cc1Cl)N1CCN(c2ccccn2)CC1,"inconclusive: 39.8 µM [inhibitor, single point]",–
O=C(NC(c1ccccc1)c1ccccc1)c1ccc(=O)[nH]n1,–,inactive: 8.47%
CC1=CC2=NC(=O)CC(C)(C(=O)N(CC(=O)NC(C)(C)C)Cc3ccccc3)N2C=C1 (stereo unspecified),"inconclusive: 28.2 µM [inhibitor, partial curve]",–
